Measured values reported in the antibiotic and cytotoxicity screens of Wong et al. (2023).
Some of the results follow.

Columns and labels:
HSkMC = human skeletal muscle cells; experiment: cytotoxicity call (relative viability < 0.9); settings: 10 µM
HepG2 = experiment: cytotoxicity call (relative viability < 0.9); settings: 10 µM
S. aureus RN4220 = experiment: growth inhibition call (relative growth <= 0.2); settings: 50 µM

O=C(O)CCC(=O)O.O=C(OC1CN2CCC1CC2)N1CCc2ccccc2C1c1ccccc1 (stereo not drawn)
cytotoxicity call (HSkMC): inactive | cytotoxicity call (HepG2): inactive | growth inhibition call (S. aureus RN4220): inactive

C[C@H]1CN([C@@H](C)CO)C(=O)c2cc(NS(=O)(=O)c3ccc(F)cc3)ccc2O[C@H]1CN(C)CC1CC1
cytotoxicity call (HSkMC): inactive | cytotoxicity call (HepG2): inactive | growth inhibition call (S. aureus RN4220): inactive

C[C@@H]1CN([C@@H](C)CO)C(=O)CCCn2nncc2CO[C@H]1CN(C)C(=O)Nc1cccc(C(F)(F)F)c1
cytotoxicity call (HSkMC): inactive | cytotoxicity call (HepG2): inactive | growth inhibition call (S. aureus RN4220): inactive

OC[C@@H](O)[C@@H](O)[C@@H](O)[C@@H](O)[C@@H](O)CO
cytotoxicity call (HSkMC): inactive | cytotoxicity call (HepG2): inactive | growth inhibition call (S. aureus RN4220): inactive

C=CCOC(=O)[C@@H]1[C@H]2C(=O)O[C@H](c3ccccc3)[C@H](c3ccccc3)N2[C@H](c2ccc(OCCOC(=O)[C@H]3C[C@H]4C(=O)N[C@@H](CCCC[N+](C)(C)C)C(=O)N4[C@H]3c3cccc(OCCO)c3)cc2)[C@@]12C(=O)Nc1ccc(I)cc12
cytotoxicity call (HSkMC): inactive | cytotoxicity call (HepG2): inactive | growth inhibition call (S. aureus RN4220): inactive

COc1ccc(NC(=O)Nc2ccc3c(c2)C(=O)N([C@@H](C)CO)C[C@H](C)[C@@H](CN(C)S(=O)(=O)c2ccc(C)cc2)OCCCC[C@@H](C)O3)cc1
cytotoxicity call (HSkMC): inactive | cytotoxicity call (HepG2): active | growth inhibition call (S. aureus RN4220): inactive

C[C@@H]1CCCCO[C@H](CN(C)C(=O)NC2CCCCC2)[C@@H](C)CN([C@@H](C)CO)C(=O)c2cc(NC(=O)NC3CCCCC3)ccc2O1
cytotoxicity call (HSkMC): inactive | cytotoxicity call (HepG2): inactive | growth inhibition call (S. aureus RN4220): inactive

O=C(N[C@H](c1ccc(F)cc1)c1ccc2ccccc2n1)C1CCN(CCOc2ccc(Cl)cc2)CC1
cytotoxicity call (HSkMC): inactive | cytotoxicity call (HepG2): inactive | growth inhibition call (S. aureus RN4220): active

COc1ccc(S(=O)(=O)N(C)C[C@@H]2Oc3c(NC(=O)C4CCOCC4)cccc3C(=O)N([C@H](C)CO)C[C@H]2C)cc1
cytotoxicity call (HSkMC): inactive | cytotoxicity call (HepG2): inactive | growth inhibition call (S. aureus RN4220): inactive

COc1ncnc2nc[nH]c12
cytotoxicity call (HSkMC): inactive | cytotoxicity call (HepG2): inactive | growth inhibition call (S. aureus RN4220): inactive

COc1ncnc(OC)c1C
cytotoxicity call (HSkMC): inactive | cytotoxicity call (HepG2): inactive | growth inhibition call (S. aureus RN4220): inactive

Cc1ccc(S(=O)(=O)Nc2ccc3c(c2)C(=O)N([C@@H](C)CO)C[C@@H](C)[C@@H](CN(C)S(=O)(=O)c2ccc(F)cc2)OCCCC[C@H](C)O3)cc1
cytotoxicity call (HSkMC): inactive | cytotoxicity call (HepG2): inactive | growth inhibition call (S. aureus RN4220): inactive

NC(=O)c1cc(Cl)ccn1
cytotoxicity call (HSkMC): inactive | cytotoxicity call (HepG2): inactive | growth inhibition call (S. aureus RN4220): inactive

Cc1noc(C)c1NC(=O)Nc1ccc2c(c1)C(=O)N([C@H](C)CO)C[C@H](C)[C@H](CN(C)Cc1ccccc1)OCCCC[C@H](C)O2
cytotoxicity call (HSkMC): inactive | cytotoxicity call (HepG2): inactive | growth inhibition call (S. aureus RN4220): inactive

C[C@H](CO)N1C[C@H](C)[C@@H](CN(C)C(=O)c2ccccc2)OCCCC[C@H](C)Oc2ccc(NC(=O)CCC(F)(F)F)cc2C1=O
cytotoxicity call (HSkMC): inactive | cytotoxicity call (HepG2): inactive | growth inhibition call (S. aureus RN4220): inactive

C[C@@H]1CCCCO[C@@H](CN(C)S(=O)(=O)c2ccc(F)cc2)[C@@H](C)CN([C@H](C)CO)C(=O)c2cc(NC(=O)Nc3cccc4ccccc34)ccc2O1
cytotoxicity call (HSkMC): inactive | cytotoxicity call (HepG2): inactive | growth inhibition call (S. aureus RN4220): inactive

O=C1C(=CNC(CO)(CO)CO)C(=O)c2ccccc21
cytotoxicity call (HSkMC): inactive | cytotoxicity call (HepG2): inactive | growth inhibition call (S. aureus RN4220): inactive

C[C@@H]1CCCCO[C@@H](CN(C)Cc2ccc(C(=O)O)cc2)[C@@H](C)CN([C@H](C)CO)C(=O)c2cc(NC(=O)Nc3ccc(F)cc3)ccc2O1
cytotoxicity call (HSkMC): inactive | cytotoxicity call (HepG2): inactive | growth inhibition call (S. aureus RN4220): inactive

Cc1cccc(S(=O)(=O)N2C[C@@H](O)COC[C@H]3O[C@@H](CC(=O)NCCCN4CCOCC4)CC[C@@H]32)c1
cytotoxicity call (HSkMC): inactive | cytotoxicity call (HepG2): inactive | growth inhibition call (S. aureus RN4220): inactive

O=C1C=CC(O)(/C=C/C(=O)O[C@@H]2[C@@H](O)[C@H](Oc3ccc(O)cc3)O[C@H](CO)[C@H]2O)C=C1
cytotoxicity call (HSkMC): inactive | cytotoxicity call (HepG2): inactive | growth inhibition call (S. aureus RN4220): inactive

C[C@H](CO)N1C[C@H](C)[C@H](CN(C)S(=O)(=O)c2cn(C)cn2)Oc2c(NS(C)(=O)=O)cccc2C1=O
cytotoxicity call (HSkMC): inactive | cytotoxicity call (HepG2): inactive | growth inhibition call (S. aureus RN4220): inactive

COc1ccc(S(=O)(=O)N(C)C[C@H]2Oc3ccc(NC(=O)c4ccncc4)cc3C(=O)N([C@@H](C)CO)C[C@H]2C)cc1
cytotoxicity call (HSkMC): inactive | cytotoxicity call (HepG2): inactive | growth inhibition call (S. aureus RN4220): inactive

COc1cccc(S(=O)(=O)N(C)C[C@H]2Oc3ncc(-c4cccc(C(=O)N(C)C)c4)cc3C(=O)N([C@@H](C)CO)C[C@H]2C)c1
cytotoxicity call (HSkMC): inactive | cytotoxicity call (HepG2): inactive | growth inhibition call (S. aureus RN4220): inactive

NCCCCCNC(=O)[C@H]1C[C@H]2C(=O)NCC(=O)N2[C@H]1c1cccc(OCCO)c1
cytotoxicity call (HSkMC): inactive | cytotoxicity call (HepG2): inactive | growth inhibition call (S. aureus RN4220): inactive

C[C@@H]1CCCCO[C@H](CN(C)S(=O)(=O)c2cn(C)cn2)[C@@H](C)CN([C@H](C)CO)C(=O)c2cc(NS(=O)(=O)c3cn(C)cn3)ccc2O1
cytotoxicity call (HSkMC): inactive | cytotoxicity call (HepG2): inactive | growth inhibition call (S. aureus RN4220): inactive

C[C@@H]1CN([C@H](C)CO)C(=O)c2cc(C3=CCCC3)cnc2O[C@@H]1CN(C)C(=O)Nc1ccc(C(F)(F)F)cc1
cytotoxicity call (HSkMC): inactive | cytotoxicity call (HepG2): active | growth inhibition call (S. aureus RN4220): inactive
